Binding signal data for 23 sequences are collected here from PMC7819943, “Rice protein-binding microarrays: a tool to detect cis-acting elements near promoter regions in rice”.

The other results are listed elsewhere or left out.

The experiment deals with T1, OsWOX13 (Oryza sativa, UniProt Q5QMM3 1-267).
T1 sequence: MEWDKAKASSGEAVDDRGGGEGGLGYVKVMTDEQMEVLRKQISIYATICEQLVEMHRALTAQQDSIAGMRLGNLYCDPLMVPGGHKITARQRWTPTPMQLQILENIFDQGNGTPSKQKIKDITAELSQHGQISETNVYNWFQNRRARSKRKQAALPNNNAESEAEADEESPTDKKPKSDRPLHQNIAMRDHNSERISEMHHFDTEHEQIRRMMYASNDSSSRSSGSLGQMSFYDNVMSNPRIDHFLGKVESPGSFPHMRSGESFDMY
Briefly: protein-binding microarray (RPBM); PBS, 2% BSA, 51.3 ng/ul salmon testes DNA, 50 uM zinc acetate, 200 nM TF, 25 C, 1 h; high values mean tight binding. The note with it: protein: recombinant; tags: N-terminal polyhistidine and DsRed monomer fusion (pET32a); label: CyDye5-dUTP incorporated in the synthesized complementary strand; 3' TTTTT single-stranded linker to array surface; dsDNA, one strand shown. The essentials:
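In PBS with 2% BSA, salmon testes DNA and 50 µM zinc acetate, 200 nM protein was incubated on a custom Agilent array at 25 °C for 1 h and then washed off. The array had been made double-stranded by primer extension with Cy5-dUTP and blocked with 2% BSA. The proteins were transcription factors fused N-terminally to polyhistidine and DsRed, expressed in E. coli BL21-CodonPlus and purified on Ni–NTA. The binding signal is per-feature fluorescence intensity (arbitrary units) from an Axon 4000B scanner.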
In the case of “GAAAGAGAGATTGACAAGTGGGACCATGGGCAAACTTATCCGGAGTCACCTAGTGCAG”, the binding signal is 8990 fluorescence intensity (a.u.).
For “GAAATTCAAATTATACCAATTTAAATAGTTGGGATCAACACGGAGTCACCTAGTGCAG” the value was 5400 fluorescence intensity (a.u.).
The same measure for “TGGTAATTGGAAGAGAATTCCTCCATTACTTTCCTAAACACGGAGTCACCTAGTGCAG”: 31000 fluorescence intensity (a.u.); for “CCAGATTTAATTTCACTTGCAATCTGTGATTCTTCTGGTGCGGAGTCACCTAGTGCAG”: 35300 fluorescence intensity (a.u.); for “CAAAATTATTCGTAAACGAATAATTGGTTCATATTCGATCCGGAGTCACCTAGTGCAG”: 24400 fluorescence intensity (a.u.).
For “CATGATTCCATCAACATCTAGCTGTTGATGGCCCCTCTGTCGGAGTCACCTAGTGCAG” the value was 6100 fluorescence intensity (a.u.); for “CCACCAGTTTAATTATTCTATTGTACCTGCTCTATTATATCGGAGTCACCTAGTGCAG”, 5550 fluorescence intensity (a.u.).
Turning to “ACCATTACATCCAGTAATTTATATTATTATATACCTTGAACGGAGTCACCTAGTGCAG”, the binding signal is 6320 fluorescence intensity (a.u.).
Consider “CAACCCTTAATTTAATCCAGATCCCCAACCAAACCCACTCCGGAGTCACCTAGTGCAG”, for which the binding signal is 6540 fluorescence intensity (a.u.).
For “GGTTTCTAATCAACACATACATGGGCCGCGTGATTCTTGCCGGAGTCACCTAGTGCAG” the value was 6440 fluorescence intensity (a.u.).
The same measure for “TTTTCAGATTGATAGAGTGGCTGGAGCAGGAACAGATTTTCGGAGTCACCTAGTGCAG”: 15000 fluorescence intensity (a.u.); for “AATCAGCTCTAAATTTAAATTGTGGCTGATAAATACGAGTCGGAGTCACCTAGTGCAG”: 4450 fluorescence intensity (a.u.).
For “TACCGCTCAAAATCTAATAATTGATATTATTGCATTGTACCGGAGTCACCTAGTGCAG”, the binding signal is 5920 fluorescence intensity (a.u.).
For “CGTCATAATTACCGGCTTTCCTTCCTTGCCCGGTTACCCCCGGAGTCACCTAGTGCAG” the value was 19700 fluorescence intensity (a.u.); for “TGTCATGTTTATTATCTTAATTTTCTGGATTAAAATATACCGGAGTCACCTAGTGCAG”, 5770 fluorescence intensity (a.u.).
For “ATCAAAATTGAGGAGTTTCTATCAGGCTGTCTGCTCCTGTCGGAGTCACCTAGTGCAG” the value was 5210 fluorescence intensity (a.u.); for “GGATCAGTTTAATTACAAGGTTGTCTGATCTATATATTGCCGGAGTCACCTAGTGCAG”, 4260 fluorescence intensity (a.u.).
The same measure for “CCTGATGAACAGGTGAACACAAGAAACCCAGGACCAAAATCGGAGTCACCTAGTGCAG”: 5250 fluorescence intensity (a.u.).
As for “TTTGACTTATAAATGACTCTATGGTTTAGCCACTTACACCCGGAGTCACCTAGTGCAG”, the binding signal is 4060 fluorescence intensity (a.u.).
The same measure for “CAATATACTAACAAATTGTGACATGTCTAAGGTTTGGCATCGGAGTCACCTAGTGCAG”: 3210 fluorescence intensity (a.u.); for “TGTGTCTTGATTAATTTTCTGTGAGCTCTTCATCTGGTCTCGGAGTCACCTAGTGCAG”: 23600 fluorescence intensity (a.u.); for “CAAAATTGACGAACTGGATTTACTGTTTATAAATGAAAACCGGAGTCACCTAGTGCAG”: 41200 fluorescence intensity (a.u.).
As to “GGTGCATGTATTGTATTAATTGGATTGATTCAAACAAAGACGGAGTCACCTAGTGCAG”, the binding signal is 12500 fluorescence intensity (a.u.).
